In PMC5063347 one finds binding data, which are given here for 4 substances.

Chains of the proteins cited; added tags and fusions are not shown. Lines headed by an entry give the natural chain unless they say otherwise; changes in a name come on top. Residues count along the entry.
UniProt Q04206: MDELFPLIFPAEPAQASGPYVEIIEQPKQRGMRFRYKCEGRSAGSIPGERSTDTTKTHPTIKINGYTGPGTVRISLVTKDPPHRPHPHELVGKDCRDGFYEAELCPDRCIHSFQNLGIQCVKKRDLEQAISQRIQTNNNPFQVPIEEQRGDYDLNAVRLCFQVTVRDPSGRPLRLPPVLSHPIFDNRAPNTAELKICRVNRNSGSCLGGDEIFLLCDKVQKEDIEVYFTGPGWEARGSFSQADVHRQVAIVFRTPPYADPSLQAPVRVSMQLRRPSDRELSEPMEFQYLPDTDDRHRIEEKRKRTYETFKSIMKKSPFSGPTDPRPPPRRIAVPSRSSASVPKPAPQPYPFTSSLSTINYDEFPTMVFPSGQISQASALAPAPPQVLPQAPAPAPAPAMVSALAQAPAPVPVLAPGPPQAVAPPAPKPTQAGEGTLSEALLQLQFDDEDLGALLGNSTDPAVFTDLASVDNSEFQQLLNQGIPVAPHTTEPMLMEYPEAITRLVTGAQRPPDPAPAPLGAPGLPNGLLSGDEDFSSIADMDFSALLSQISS
pHA-p65 (amino acids 1–332, RHD): residues 1-332 of Q04206
pHA-p65 (amino acids 299–551): residues 299-551 of Q04206
UniProt O00571: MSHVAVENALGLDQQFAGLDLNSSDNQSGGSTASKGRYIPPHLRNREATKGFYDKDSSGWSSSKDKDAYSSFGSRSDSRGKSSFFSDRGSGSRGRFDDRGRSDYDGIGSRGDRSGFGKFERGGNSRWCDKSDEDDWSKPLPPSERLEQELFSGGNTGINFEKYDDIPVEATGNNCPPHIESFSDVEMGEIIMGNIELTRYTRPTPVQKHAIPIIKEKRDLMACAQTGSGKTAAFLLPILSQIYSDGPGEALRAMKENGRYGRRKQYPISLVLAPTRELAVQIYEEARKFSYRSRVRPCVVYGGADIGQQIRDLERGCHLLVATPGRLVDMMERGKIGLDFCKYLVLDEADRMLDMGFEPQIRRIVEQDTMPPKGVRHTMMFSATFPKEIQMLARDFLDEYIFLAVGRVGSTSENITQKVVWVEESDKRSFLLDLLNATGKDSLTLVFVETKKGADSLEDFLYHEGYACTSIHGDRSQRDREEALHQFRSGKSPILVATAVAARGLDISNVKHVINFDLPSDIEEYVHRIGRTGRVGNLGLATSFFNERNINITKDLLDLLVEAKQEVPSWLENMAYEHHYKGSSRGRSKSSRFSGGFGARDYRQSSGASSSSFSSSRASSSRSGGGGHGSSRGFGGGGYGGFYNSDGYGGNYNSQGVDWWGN

No constants are given. Whether binding was seen depends on the method and setting. For part of these data: In cells and extracts the contact can be indirect. Some binding calls cover weakened binding; strength is not graded here.

Experiment [1] has as its target p65 fused to the Gal4 DBD (UniProt Q04206). The experiment in a line: two-hybrid; mammalian two-hybrid in 293T cells; Gal4-luc reporter (100 ng), 350 ng of each fusion plasmid; luciferase activity 48 hours post transfection.
In experiment [2] the target is pHA-p65 (amino acids 299–551) (UniProt Q04206). Description: co-IP; 293T cells co-transfected with Flag-DDX3 and HA-p65 (wt or deletion mutants); lysates immunoprecipitated with anti-HA antibody overnight at 4°C, protein A/G-agarose; blot with anti-Flag.
For experiment [3], the target named is HA-tagged wild type p65 (UniProt Q04206). Described as above.
In experiment [4] the target is pHA-p65 (amino acids 1–332, RHD) (UniProt Q04206). The description is as above.
The target in experiment [5] is endogenous DDX3 (human (endogenous in 293T)) (UniProt O00571). The experiment in a line: co-IP; endogenous proteins; non-transfected 293T lysates immunoprecipitated with polyclonal anti-DDX3 antibody or IgG (control); blot with anti-p65.
Experiment [6] concerns the target recombinant GST-tagged DDX3 (human) (UniProt O00571). Description: pull-down; GST pull-down; 50 ng GST-DDX3 or GST immobilised on glutathione resin beads at 4°C, 50 ng His-p65 added for 4 hours; washed with N-lysis buffer (0.15 mM NaCl, 1% NP-40, 50 mM Tris-HCl, pH 8.0, 5 mM EDTA); Western blot; both purified. (A western blot detects proteins with antibodies after separation by electrophoresis.)

Consider “DDX3 fused to the VP16 activation domain (from UniProt O00571 1-662)”, for which the binding result in experiment [1] is listed as “binds”.

On to “Flag-tagged DDX3 (from UniProt O00571 1-662)”, for which the binding result was “no binding” in experiment [2], “binds” in experiment [3] and “binds” in experiment [4].

On to “endogenous p65 (from UniProt Q04206 1-551)”, for which the binding result in experiment [5] is “binds”.

As for “recombinant His-tagged p65 (from UniProt Q04206 1-551)”, in experiment [6], the binding entry is “binds”.
